The supplement of paper PMC11316812
± gives the standard deviation of the averaged measurements.

Key:
hTERT-HMEC = assay: percentage of EdU-negative (G0-arrested) nuclei per well, 72 h; higher = more G0 arrest; details: reference: sequence is the full UniProt precursor, the tested protein was the secreted form or ectodomain
MCF7 = assay: percentage of EdU-negative (G0-arrested) nuclei per well, 72 h; reference: sequence is the full UniProt precursor, the tested protein was the secreted form or ectodomain; higher = more G0 arrest
[1] = protein concentration 0.0102875 µM
[2] = protein concentration 0.102875 µM
[3] = protein concentration 0.0156325 µM
[4] = protein concentration 0.156325 µM
[5] = protein concentration 0.0190475 µM
[6] = protein concentration 0.190475 µM
[7] = protein concentration 0.0293625 µM
[8] = protein concentration 0.293625 µM
[9] = protein concentration 0.0225 µM
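Note: secreted proteins added to cultured cells, EdU pulse at the end, nuclei found by Hoechst imaging, EdU status from nuclear versus surrounding ring intensity ratio, PBS as neutral control.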

MDSLASLVLCGVSLLLSGTVEGAMDLILINSLPLVSDAETSLTCIASGWRPHEPITIGRDFEALMNQHQDPLEVTQDVTREWAKKVVWKREKASKINGAYFCEGRVRGEAIRIRTMKMRQQASFLPATLTMTVDKGDNVNISFKKVLIKEEDAVIYKNGSFIHSVPRHEVPDILEVHLPHAQPQDAGVYSARYIGGNLFTSAFTRLIVRRCEAQKWGPECNHLCTACMNNGVCHEDTGECICPPGFMGRTCEKACELHTFGRTCKERCSGQEGCKSYVFCLPDPYGCSCATGWKGLQCNEACHPGFYGPDCKLRCSCNNGEMCDRFQGCLCSPGWQGLQCEREGIQRMTPKIVDLPDHIEVNSGKFNPICKASGWPLPTNEEMTLVKPDGTVLHPKDFNHTDHFSVAIFTIHRILPPDSGVWVCSVNTVAGMVEKPFNISVKVLPKPLNAPNVIDTGHNFAVINISSEPYFGDGPIKSKKLLYKPVNHYEAWQHIQVTNEIVTLNYLEPRTEYELCVQLVRRGEGGEGHPGPVRRFTTASIGLPPPRGLNLLPKSQTTLNLTWQPIFPSSEDDFYVEVERRSVQKSDQQNIKVPGNLTSVLLNNLHPREQYVVRARVNTKAQGEWSEDLTAWTLSDILPPQPENIKISNITHSSAVISWTILDGYSISSITIRYKVQGKNEDQHVDVKIKNATITQYQLKGLEPETAYQVDIFAENNIGSSNPAFSHELVTLPESQAPADLGGGKMLLIAILGSAGMTCLTVLLAFLIILQLKRANVQRRMAQAFQNVREEPAVQFNSGTLALNRKVKNNPDPTIYPVLDWNDIKFQDVIGEGNFGQVLKARIKKDGLRMDAAIKRMKEYASKDDHRDFAGELEVLCKLGHHPNIINLLGACEHRGYLYLAIEYAPHGNLLDFLRKSRVLETDPAFAIANSTASTLSSQQLLHFAADVARGMDYLSQKQFIHRDLAARNILVGENYVAKIADFGLSRGQEVYVKKTMGRLPVRWMAIESLNYSVYTTNSDVWSYGVLLWEIVSLGGTPYCGMTCAELYEKLPQGYRLEKPLNCDDEVYDLMRQCWREKPYERPSFAQILVSLNRMLEERKTYVNTTLYEKFTYAGIDCSAEEAA
percentage of EdU-negative (hTERT-HMEC; protein concentration 0.028 µM): 4.38 ± 0.76% | percentage of EdU-negative (hTERT-HMEC; protein concentration 0.28 µM): 12.4 ± 1.5% | percentage of EdU-negative (MCF7; protein concentration 0.028 µM): 25.5 ± 2.3% | percentage of EdU-negative (MCF7; protein concentration 0.28 µM): 31.6 ± 1.1%

MGSNLSPQLCLMPFILGLLSGGVTTTPWSLARPQGSCSLEGVEIKGGSFRLLQEGQALEYVCPSGFYPYPVQTRTCRSTGSWSTLKTQDQKTVRKAECRAIHCPRPHDFENGEYWPRSPYYNVSDEISFHCYDGYTLRGSANRTCQVNGRWSGQTAICDNGAGYCSNPGIPIGTRKVGSQYRLEDSVTYHCSRGLTLRGSQRRTCQEGGSWSGTEPSCQDSFMYDTPQEVAEAFLSSLTETIEGVDAEDGHGPGEQQKRKIVLDPSGSMNIYLVLDGSDSIGASNFTGAKKCLVNLIEKVASYGVKPRYGLVTYATYPKIWVKVSEADSSNADWVTKQLNEINYEDHKLKSGTNTKKALQAVYSMMSWPDDVPPEGWNRTRHVIILMTDGLHNMGGDPITVIDEIRDLLYIGKDRKNPREDYLDVYVFGVGPLVNQVNINALASKKDNEQHVFKVKDMENLEDVFYQMIDESQSLSLCGMVWEHRKGTDYHKQPWQAKISVIRPSKGHESCMGAVVSEYFVLTAAHCFTVDDKEHSIKVSVGGEKRDLEIEVVLFHPNYNINGKKEAGIPEFYDYDVALIKLKNKLKYGQTIRPICLPCTEGTTRALRLPPTTTCQQQKEELLPAQDIKALFVSEEEKKLTRKEVYIKNGDKKGSCERDAQYAPGYDKVKDISEVVTPRFLCTGGVSPYADPNTCRGDSGGPLIVHKRSRFIQVGVISWGVVDVCKNQKRQKQVPAHARDFHINLFQVLPWLKEKLQDEDLGFL
percentage of EdU-negative (hTERT-HMEC; [1]): 5 ± 0.34% | percentage of EdU-negative (hTERT-HMEC; [2]): 5.82 ± 0.94% | percentage of EdU-negative (MCF7; [1]): 24.23 ± 0.21% | percentage of EdU-negative (MCF7; [2]): 25.3 ± 1.3%

MGTSHPAFLVLGCLLTGLSLILCQLSLPSILPNENEKVVQLNSSFSLRCFGESEVSWQYPMSEEESSDVEIRNEENNSGLFVTVLEVSSASAAHTGLYTCYYNHTQTEENELEGRHIYIYVPDPDVAFVPLGMTDYLVIVEDDDSAIIPCRTTDPETPVTLHNSEGVVPASYDSRQGFNGTFTVGPYICEATVKGKKFQTIPFNVYALKATSELDLEMEALKTVYKSGETIVVTCAVFNNEVVDLQWTYPGEVKGKGITMLEEIKVPSIKLVYTLTVPEATVKDSGDYECAARQATREVKEMKKVTISVHEKGFIEIKPTFSQLEAVNLHEVKHFVVEVRAYPPPRISWLKNNLTLIENLTEITTDVEKIQEIRYRSKLKLIRAKEEDSGHYTIVAQNEDAVKSYTFELLTQVPSSILDLVDDHHGSTGGQTVRCTAEGTPLPDIEWMICKDIKKCNNETSWTILANNVSNIITEIHSRDRSTVEGRVTFAKVEETIAVRCLAKNLLGAENRELKLVAPTLRSELTVAAAVLVLLVIVIISLIVLVVIWKQKPRYEIRWRVIESISPDGHEYIYVDPMQLPYDSRWEFPRDGLVLGRVLGSGAFGKVVEGTAYGLSRSQPVMKVAVKMLKPTARSSEKQALMSELKIMTHLGPHLNIVNLLGACTKSGPIYIITEYCFYGDLVNYLHKNRDSFLSHHPEKPKKELDIFGLNPADESTRSYVILSFENNGDYMDMKQADTTQYVPMLERKEVSKYSDIQRSLYDRPASYKKKSMLDSEVKNLLSDDNSEGLTLLDLLSFTYQVARGMEFLASKNCVHRDLAARNVLLAQGKIVKICDFGLARDIMHDSNYVSKGSTFLPVKWMAPESIFDNLYTTLSDVWSYGILLWEIFSLGGTPYPGMMVDSTFYNKIKSGYRMAKPDHATSEVYEIMVKCWNSEPEKRPSFYHLSEIVENLLPGQYKKSYEKIHLDFLKSDHPAVARMRVDSDNAYIGVTYKNEEDKLKDWEGGLDEQRLSADSGYIIPLPDIDPVPEEEDLGKRNRHSSQTSEESAIETGSSSSTFIKREDETIEDIDMMDDIGIDSSDLVEDSFL
percentage of EdU-negative (hTERT-HMEC; [3]): 4.84 ± 0.13% | percentage of EdU-negative (hTERT-HMEC; [4]): 5.7 ± 0.39% | percentage of EdU-negative (MCF7; [3]): 27.107 ± 0.0077% | percentage of EdU-negative (MCF7; [4]): 26.6 ± 2.6%

MITEGAQAPRLLLPPLLLLLTLPATGSDPVLCFTQYEESSGKCKGLLGGGVSVEDCCLNTAFAYQKRSGGLCQPCRSPRWSLWSTWAPCSVTCSEGSQLRYRRCVGWNGQCSGKVAPGTLEWQLQACEDQQCCPEMGGWSGWGPWEPCSVTCSKGTRTRRRACNHPAPKCGGHCPGQAQESEACDTQQVCPTHGAWATWGPWTPCSASCHGGPHEPKETRSRKCSAPEPSQKPPGKPCPGLAYEQRRCTGLPPCPVAGGWGPWGPVSPCPVTCGLGQTMEQRTCNHPVPQHGGPFCAGDATRTHICNTAVPCPVDGEWDSWGEWSPCIRRNMKSISCQEIPGQQSRGRTCRGRKFDGHRCAGQQQDIRHCYSIQHCPLKGSWSEWSTWGLCMPPCGPNPTRARQRLCTPLLPKYPPTVSMVEGQGEKNVTFWGRPLPRCEELQGQKLVVEEKRPCLHVPACKDPEEEEL
percentage of EdU-negative (hTERT-HMEC; [5]): 5.11 ± 0.52% | percentage of EdU-negative (hTERT-HMEC; [6]): 6.16 ± 1% | percentage of EdU-negative (MCF7; [5]): 26.24 ± 0.22% | percentage of EdU-negative (MCF7; [6]): 23.9 ± 2.2%

MPQLYIYIRLLGAYLFIISRVQGQNLDSMLHGTGMKSDSDQKKSENGVTLAPEDTLPFLKCYCSGHCPDDAINNTCITNGHCFAIIEEDDQGETTLASGCMKYEGSDFQCKDSPKAQLRRTIECCRTNLCNQYLQPTLPPVVIGPFFDGSIRWLVLLISMAVCIIAMIIFSSCFCYKHYCKSISSRRRYNRDLEQDEAFIPVGESLKDLIDQSQSSGSGSGLPLLVQRTIAKQIQMVRQVGKGRYGEVWMGKWRGEKVAVKVFFTTEEASWFRETEIYQTVLMRHENILGFIAADIKGTGSWTQLYLITDYHENGSLYDFLKCATLDTRALLKLAYSAACGLCHLHTEIYGTQGKPAIAHRDLKSKNILIKKNGSCCIADLGLAVKFNSDTNEVDVPLNTRVGTKRYMAPEVLDESLNKNHFQPYIMADIYSFGLIIWEMARRCITGGIVEEYQLPYYNMVPSDPSYEDMREVVCVKRLRPIVSNRWNSDECLRAVLKLMSECWAHNPASRLTALRIKKTLAKMVESQDVKI
percentage of EdU-negative (hTERT-HMEC; [7]): 4.6126 ± 0.0036% | percentage of EdU-negative (hTERT-HMEC; [8]): 5.09 ± 0.12% | percentage of EdU-negative (MCF7; [7]): 25.5 ± 3.1% | percentage of EdU-negative (MCF7; [8]): 26.6 ± 0.53%

MSSTLPALLCVGLCLSQRISAQQQTLPKPFIWAEPHFMVPKEKQVTICCQGNYGAVEYQLHFEGSLFAVDRPKPPERINKVQFYIPDMNSRMAGQYSCIYRVGELWSEPSNLLDLVVTEMYDTPTLSVHPGPEVISGEKVTFYCRLDTATSMFLLLKEGRSSHVQRGYGKVQAEFPLGPVTTAHRGTYRCFGSYNNHAWSFPSEPVKLLVTGDIENTSLAPEDPTFPADTWGTYLLTTETGLQKDHALWDHTAQNLLRMGLAFLVLVALVWFLVEDWLSRKRTRERASRASTWEGRRRLNTQTL
percentage of EdU-negative (hTERT-HMEC; [9]): 4.59 ± 0.52% | percentage of EdU-negative (hTERT-HMEC; protein concentration 0.225 µM): 5.14 ± 0.081% | percentage of EdU-negative (MCF7; [9]): 25.9 ± 2.3% | percentage of EdU-negative (MCF7; protein concentration 0.225 µM): 27.7 ± 1.2%
